In experiment [1] the test system is HSkMC (human skeletal muscle cells). Briefly: cytotoxicity call (relative viability < 0.9). The following applies: 10 µM.
Experiment [2] concerns HepG2. Briefly: cytotoxicity call (relative viability < 0.9). The following applies: 10 µM.
Experiment [3] deals with S. aureus RN4220. Briefly: growth inhibition call (relative growth <= 0.2). To be noted: 50 µM.

The other results are listed elsewhere or left out.

On to `COc1ccc(C[C@H](NC(=O)[C@H](C)NC(=O)CN2CCOCC2)C(=O)N[C@@H](Cc2ccccc2)C(=O)[C@@]2(C)CO2)cc1`, for which the cytotoxicity call in experiment [1] and in experiment [2] was “active” in each case. The growth inhibition call in experiment [3] is “inactive”.
In the case of `C[C@H]1CN([C@@H](C)CO)C(=O)c2cc(C#Cc3ccccc3F)cnc2O[C@@H]1CN(C)S(=O)(=O)c1ccccc1F`, the cytotoxicity call in experiment [1] and in experiment [2] was “inactive” each time. For the same compound, in experiment [3], the growth inhibition call is “inactive”.
With `C[C@@H]1CN([C@@H](C)CO)C(=O)c2ccccc2-c2ccccc2CO[C@H]1CN(C)C(=O)Nc1cccc(C(F)(F)F)c1`, the cytotoxicity call in experiment [1] and in experiment [2] was “inactive” each time. Besides, the growth inhibition call in experiment [3] is “inactive”.
As to `C[C@@H]1CCCCO[C@@H](CN(C)Cc2ccc3c(c2)OCO3)[C@H](C)CN([C@H](C)CO)C(=O)c2cc(NC(=O)NC3CCCCC3)ccc2O1`, the cytotoxicity call in experiment [1] and in experiment [2] was “inactive” throughout. In addition, in experiment [3], the growth inhibition call is “inactive”.
Regarding `C[C@@H]1CN([C@H](C)CO)C(=O)c2cc(NC(=O)Cc3ccccc3)ccc2O[C@@H](C)CCCCO[C@H]1CN(C)Cc1ccc(C(F)(F)F)cc1`, the cytotoxicity call in experiment [1] was “inactive”. Moreover, in experiment [2], the cytotoxicity call is “active”. The growth inhibition call in experiment [3] was “inactive”.
Take `CC(C)NC(=O)N(C)C[C@@H]1Oc2c(NS(=O)(=O)c3cn(C)cn3)cccc2C(=O)N([C@@H](C)CO)C[C@H]1C`: the cytotoxicity call in experiment [1] and in experiment [2] was “inactive” each time. Further, in experiment [3], the growth inhibition call was “inactive”.
Take `C[C@@H]1CN([C@H](C)CO)C(=O)c2cc(NC(=O)Nc3ccccc3)ccc2O[C@@H]1CN(C)S(C)(=O)=O`: the cytotoxicity call in experiment [1] and in experiment [2] was “inactive” each time. The growth inhibition call in experiment [3] was “inactive”.
Regarding `Oc1ccc(C2Oc3cc(O)cc(O)c3CC2O)cc1` (configuration not stated), the cytotoxicity call in experiment [1] and in experiment [2] was “inactive” in each case. The growth inhibition call in experiment [3] is “inactive”.
Regarding `Cc1ccc(S(=O)(=O)N(C)C[C@@H]2Oc3c(NS(=O)(=O)c4ccc(F)cc4)cccc3C(=O)N([C@@H](C)CO)C[C@H]2C)cc1`, the cytotoxicity call in experiment [1] and in experiment [2] was “inactive” in each case. In addition, the growth inhibition call in experiment [3] was “inactive”.

For the origin of these results see the antibiotic and cytotoxicity screens of Wong et al. (2023).
